Test results from paper PMC6919601, “Identification of Plasmodium dipeptidyl aminopeptidase allosteric inhibitors by high throughput screening” (PLoS ONE, 2019).
In all, about 110,000 compounds went through this assay and about 230 (0.21%) showed an effect of 50% or more. The list shows a part of the results.

Target: DPAP1 (Plasmodium falciparum, UniProt Q8IIJ9)
Test: primary screen, percent inhibition; read by cleavage of a fluorogenic dipeptide substrate; higher = more effect of the substance
Parameters: species or system P. falciparum D10 trophozoite lysates; single well
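Note: 30 min substrate incubation versus DMSO and 10 µM JCP410 controls.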

Sequence of DPAP1 (Q8IIJ9 whole entry, looked up): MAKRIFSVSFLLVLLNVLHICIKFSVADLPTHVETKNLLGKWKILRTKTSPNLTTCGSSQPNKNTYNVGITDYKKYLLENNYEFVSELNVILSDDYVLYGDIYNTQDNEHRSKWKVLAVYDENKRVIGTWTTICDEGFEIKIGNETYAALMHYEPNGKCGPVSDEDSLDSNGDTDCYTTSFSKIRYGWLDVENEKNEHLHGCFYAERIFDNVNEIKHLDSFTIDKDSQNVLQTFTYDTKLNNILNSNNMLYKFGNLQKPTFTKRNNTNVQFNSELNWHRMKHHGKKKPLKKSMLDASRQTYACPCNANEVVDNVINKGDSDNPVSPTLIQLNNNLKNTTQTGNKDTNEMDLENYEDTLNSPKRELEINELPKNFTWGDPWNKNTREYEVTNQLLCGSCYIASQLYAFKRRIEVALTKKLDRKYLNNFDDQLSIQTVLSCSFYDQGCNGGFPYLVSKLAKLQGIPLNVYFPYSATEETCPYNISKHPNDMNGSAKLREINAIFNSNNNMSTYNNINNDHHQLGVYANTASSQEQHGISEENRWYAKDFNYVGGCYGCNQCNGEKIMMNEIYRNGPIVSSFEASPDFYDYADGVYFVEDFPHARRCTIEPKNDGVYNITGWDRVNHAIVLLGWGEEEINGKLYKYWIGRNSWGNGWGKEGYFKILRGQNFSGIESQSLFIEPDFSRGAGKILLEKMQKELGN

Structure (SMILES)	% Inhibition @ 10 uM [%]
C(#CCN1CCN(CC#CCOCc2ccccc2)CC1)COCc1ccccc1	3.43
CCOC(=O)/C(C#N)=C/c1c(Oc2ccc(Br)cc2)nc2ccccn2c1=O	-6.23
CN1C(=O)C(O)(CC(=O)c2ccc(Br)cc2)c2ccccc21 (centres unmarked)	0.83
COc1cc(C(=O)NCc2ccccn2)cc(OC)c1OC	-21.4
COc1ccc(CCn2c(SCC(=O)Nc3cc(C)[nH]n3)nc3ncccc3c2=O)cc1OC	3.32
Cc1ccc(C(C)C)c(OCCN2C(=O)c3ccccc3C2=O)c1	-3.04
CCOC(=O)N1CCN(C2=Cc3ccccc3Sc3ccccc32)CC1	13.7
CC(C)C[C@H](NC(=O)OCc1ccccc1)c1nc(C(=O)NNC(=O)[C@H](Cc2ccc3ccccc3c2)NC(=O)OCc2ccccc2)cs1	-5.64
CN1CCN(C(=O)c2ccc(CNS(=O)(=O)c3ccc(Br)cc3)cc2)CC1	-5.22
CCS(=O)(=O)N1CCC2(CC1)OC(=O)C(C)=C2C(=O)NCCc1ccc(C)cc1	-6.67
O=S(=O)(c1ccc(-c2csc(Nc3cccc(C(F)(F)F)c3)n2)cc1)N1CCCC1	-2.21
Cc1cc(NCCO)nc2ccccc12	-1.96
Cc1onc(-c2c(Cl)cccc2Cl)c1C(=O)NCc1cccnc1	8
Clc1ccc(N2CCN(Cc3ccc(Br)cc3)CC2)cc1	-3.65
O=C(Nc1nc2ccc(F)cc2s1)c1nc(S(=O)(=O)Cc2ccc(F)cc2)ncc1Cl	-4.54
CCC1CCCCN1C1=C(Cl)C(=O)N(c2ccc(OC)cc2)C1=O (centres unmarked)	-0.996
N#CC1=C(N)Oc2[nH]nc(-c3ccccc3)c2C1c1ccccc1 (centres unmarked)	-0.413
COCCOC(=O)C1=C(N)Oc2c(oc(CO)cc2=O)C1c1c(F)cccc1Cl (centres unmarked)	-5.36
Cc1cc(C)cc(-n2c(C)cc(/C=C3\SC(=O)NC3=O)c2C)c1	1.67
Cc1ccc(N2C(=O)c3cccc4c(Cl)ccc2c34)cc1	1.13
COc1ccc(CN2CCCC(O)C2)c(C)c1C (centres unmarked)	-1.07

Structure (SMILES)	% Inhibition @ 10 uM [%]
Cn1c(=O)[nH]c(=O)c2c1nc(N1CCOCC1)n2Cc1ccc(Cl)cc1	2.92
CCC(C)(C)C1CCc2c(sc(NC(=O)C3CC=CCC3C(=O)O)c2C(N)=O)C1 (centres unmarked)	1.59
CCOC(=O)NC(CC(=O)O)c1ccc(F)cc1 (centres unmarked)	0.279
CC(C)CCNC(=O)CN1CC(=O)N2CCCC2C1=O (centres unmarked)	-4.46
CSc1ccc(CN2CCN(c3ccccn3)CC2)cc1	-4.61
COc1ccccc1N1CCN(Cc2nc3ccccc3c(=O)n2-c2ccc(F)cc2)CC1	0.245
OC1(c2ccc(Br)cc2)CCN(C2CCN(CCc3ccccc3)CC2)CC1	-0.0908
Cc1nn(CC(=O)NCCCOC(C)C)c(=O)c2cc3cc(F)ccc3n12	3.09
COc1ccc(-c2noc(COc3ccc(C)cc3Br)n2)cc1OC	3.66
Cc1cc(NS(=O)(=O)c2ccc(N3C(=O)c4ccccc4C3=O)cc2)no1	-2.74
CCOc1ccc2ncc(S(=O)(=O)c3ccc(C)c(C)c3)c(N3CCN(CC)CC3)c2c1	-8.2
O=C(O)CSc1cc(NS(=O)(=O)c2ccccc2)c2ccccc2c1O	4
O=C(NCc1ccccc1)c1cc2nc(C3CC3)cc(C(F)(F)F)n2n1	3.35
COCCCNC(=O)c1cc2c(=O)n3cccc(C)c3nc2n(C2CCCCC2)c1=N	-9.1
CCOc1ccccc1NC(=O)CN(c1ccccc1C)S(C)(=O)=O	1.52
COc1ccc(O)c(C2CC(c3c(O)cc(C)oc3=O)=Nc3cc(C(F)(F)F)ccc3S2)c1 (centres unmarked)	1.42
COc1ccc(CNCc2ccc(C)cc2)c(OC)c1	-1.07
O=C(O)CCCC(=O)Nc1ccc(Oc2ccc3ccccc3c2)cc1	2.44
COc1ccc2cc(-c3nc(-c4ccc(Cl)cc4)no3)c(=O)oc2c1	-1.68
COc1ccc(/C=C2\SC(Nc3ccc(F)cc3)=NC2=O)c(OC)c1	5.73
CC(C)OCCCNCc1c(C(=O)O)n(Cc2ccccc2)c2ccccc12	-1.44

Structure (SMILES)	% Inhibition @ 10 uM [%]
CCN1C(=O)CC(c2ccncc2)=Nc2ccccc21	-5
O=C(O)C(c1c(O)oc2ccccc2c1=O)c1c(O)oc2ccccc2c1=O	3.25
CCOC(=O)N1CCC(NC(=O)c2nc(-c3cccnc3)no2)CC1	0.658
COc1cc(CN(C(=S)NCC(=O)NCc2cccs2)C2CCCC2)cc(OC)c1OC	-0.406
CC(=O)N1C(=O)C2(C(C#N)=C(N)Oc3[nH]nc(-c4ccc(F)cc4)c32)c2ccccc21 (centres unmarked)	-3.77
c1ccc(-c2csc(C3CCOCC3)n2)cc1	1.54
CN1CCN(CC(O)COc2ccc(Cl)cc2)CC1 (centres unmarked)	-0.711
CCN(CC)CCN(CC)Cc1ccccc1Cl	2.91
CCOc1ccc(C2=CC(c3cc(OC)c(OC)c(OC)c3)n3ncnc3N2)cc1 (centres unmarked)	-5.19
Cc1ccc(C(=O)Nc2nc(-c3nnn(-c4ccc(C)cc4C)c3C)ns2)cc1	2.62
Cc1cccc(NC(=O)C2CCN(S(=O)(=O)c3c(C)nn(C)c3C)CC2)n1	3.81
COc1c(S(=O)(=O)N2CCC(C(N)=O)CC2)ccc(Cl)c1Cl	3.53
Cc1ccccc1C(=O)Nc1sc(C)c(C)c1C(N)=O	-0.28
COc1ccccc1CNC(=O)Cn1ncn2nc(-c3cccs3)cc2c1=O	0.623
CN(C)S(=O)(=O)N1CCC(C(=O)O)(c2ccccc2)CC1	-6.28
CCCc1ccc(OCC(=O)Nc2ccc(C)c([N+](=O)[O-])c2)cc1	-2.66
O=C(O)C1CCCCC1C(=O)NCCCn1ccnc1 (centres unmarked)	4.01
Cc1nc2cc(-c3ccccc3)nn2c(C)c1CCC(=O)NCCC1=CCCCC1	2.93
Cc1ccc(S(=O)(=O)N(CC(=O)Nc2cccnc2)c2cc(Cl)cc(Cl)c2)cc1	-7.28
CC(C)C[C@H](NC(=O)c1cccs1)C(=O)NCC#N	0.174
